Assay results reported in the supplement of paper PMC9446081.
Out of some 39,000 compounds screened, about 220 (0.56%) showed activity. Some of the results follow.

system: Escherichia coli K-12 BW25113; experiment: relative growth (OD600 normalised to plate interquartile mean) (fraction); higher = less growth inhibition, active = 0.2 or less; details: 50 µM; LB; incubation time: overnight (16-24 h)
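Note: static incubation at 37 °C against the wild-type strain, values averaged over two biological replicates.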

Row | SMILES | relative growth
1 | O=C(C[C@H]1C[C@H]2c3cc(NC(=O)c4ccc5c(c4)OCO5)ccc3O[C@H]2[C@H](CO)O1)NCc1cccnc1 | inactive: 0.952
2 | C[C@H]1CCCCO[C@H](CN(C)C(=O)c2ccncc2)[C@@H](C)CN([C@@H](C)CO)C(=O)c2cc(NS(=O)(=O)c3ccc(Cl)cc3)ccc2O1 | inactive: 0.998
3 | CC(=O)NCCCC[C@@H]1NC(=O)[C@@H]2C[C@H](C(=O)NCCCCCN)[C@H](c3ccc(O)cc3)N2C1=O | inactive: 0.992
4 | C[C@@H]1CN([C@H](C)CO)C(=O)c2cc(NC(=O)Nc3ccccc3)ccc2O[C@@H](C)CCCCO[C@@H]1CN(C)C(=O)CCC(F)(F)F | inactive: 0.988
5 | O=S(=O)(NCC[C@@H]1CC[C@@H](NS(=O)(=O)c2ccccc2Cl)[C@H](CO)O1)c1ccc(Cl)cc1 | inactive: 1.03
6 | CS(=O)(=O)O.Oc1ccc(C2CNCCc3c2cc(O)c(O)c3Cl)cc1 (stereo not drawn) | inactive: 0.958
7 | CCS(=O)(=O)N[C@H]1CC[C@@H](CC(=O)NCc2ccccn2)O[C@H]1CO | inactive: 1.01
8 | C[C@H](CO)N1C[C@H](C)[C@H](CN(C)Cc2ccc(Oc3ccccc3)cc2)Oc2c(NC(=O)C3CC3)cccc2C1=O | inactive: 0.95
9 | C[C@@H]1CN([C@H](C)CO)C(=O)c2c(c3ccccc3n2C)-c2ccccc2CO[C@@H]1CN(C)Cc1ccc(Cl)c(Cl)c1 | inactive: 1.01
10 | C[C@@H]1CCCCO[C@@H](CN(C)Cc2ccc(C(F)(F)F)cc2)[C@H](C)CN([C@H](C)CO)C(=O)c2cc(NC(=O)CCC(F)(F)F)ccc2O1 | inactive: 1.02
11 | COc1ccc(S(=O)(=O)N(C)C[C@H]2Oc3ccc(NC(=O)Nc4c(C)noc4C)cc3C(=O)N([C@H](C)CO)C[C@H]2C)cc1 | inactive: 0.984
12 | C[C@H](CO)N1C[C@H](C)[C@@H](CN(C)Cc2ccc(C(F)(F)F)cc2)OCCCC[C@H](C)Oc2ccc(NS(C)(=O)=O)cc2C1=O | inactive: 0.961
13 | C[C@H]1O[C@@H]2[C@H](O[C@@H]1C)N(S(C)(=O)=O)CCN2S(C)(=O)=O | inactive: 0.995
14 | c1cc2c(cc1-c1nn[nH]n1)OCO2 | inactive: 0.99
15 | CN1C(=O)c2cc(NS(=O)(=O)c3ccc(F)cc3)ccc2OC[C@H]2O[C@@H](CC(=O)NCC(F)(F)F)CC[C@@H]21 | inactive: 0.984
16 | COc1ccc(CN(C)C[C@H]2OCCCC[C@H](C)Oc3ccc(NC(=O)NC4CCCCC4)cc3C(=O)N([C@@H](C)CO)C[C@@H]2C)cc1 | inactive: 1
17 | C[C@@H]1CCCCO[C@H](CN(C)C(=O)Nc2ccc(C(F)(F)F)cc2)[C@H](C)CN([C@@H](C)CO)C(=O)c2cc(NC(=O)CCC(F)(F)F)ccc2O1 | inactive: 1
18 | C[C@@H]1CN([C@@H](C)CO)C(=O)c2cccc(NS(=O)(=O)c3ccccc3)c2O[C@H]1CN(C)S(=O)(=O)c1cn(C)cn1 | inactive: 0.992
19 | COc1ccc(NC(=O)N2C[C@@H](O)COC[C@H]3O[C@H](CC(=O)NCc4ccccc4OC)CC[C@@H]32)cc1 | inactive: 0.971

Row | SMILES | relative growth
20 | Cc1ccc(S(=O)(=O)Nc2ccc3c(c2)C(=O)N([C@H](C)CO)C[C@H](C)[C@@H](CN(C)C(=O)Nc2ccccc2)OCCCC[C@@H](C)O3)cc1 | inactive: 1.01
21 | Cc1cc(C(=O)Nc2cccc3c2O[C@H](CN(C)S(=O)(=O)c2cn(C)cn2)[C@H](C)CN([C@@H](C)CO)C3=O)n(C)n1 | inactive: 1
22 | C[C@@H]1CCCCO[C@H](CN(C)C(=O)Nc2cccc3ccccc23)[C@@H](C)CN([C@@H](C)CO)C(=O)c2cc(NC(=O)Nc3ccc(F)cc3)ccc2O1 | inactive: 1.02
23 | C[C@@H]1CCCCO[C@H](CN(C)S(=O)(=O)c2ccccc2)[C@H](C)CN([C@@H](C)CO)C(=O)c2cc(NC(=O)Nc3ccccc3)ccc2O1 | inactive: 1.02
24 | CC(C)(C)c1cc(NC(=O)Nc2ccc(-c3cn4c(n3)sc3cc(OCCN5CCOCC5)ccc34)cc2)no1 | inactive: 0.961
25 | N[C@H]1CCCN(C(=O)c2cccs2)C1 | inactive: 0.981
26 | C[C@@H]1CCCCO[C@H](CN(C)S(C)(=O)=O)[C@H](C)CN([C@@H](C)CO)C(=O)c2cc(NC(=O)Nc3cccc4ccccc34)ccc2O1 | inactive: 0.997
27 | C[C@@H]1CN([C@H](C)CO)C(=O)c2cc(NC(=O)C3CCCCC3)ccc2O[C@@H](C)CCCCO[C@@H]1CN(C)Cc1ccc(C(=O)O)cc1 | inactive: 0.984
28 | O=C(NC1Cc2ccccc2C1)[C@H]1[C@H](CO)[C@H]2Cn3c(cccc3=O)[C@H]2N1C(=O)c1cnccn1 | inactive: 0.993
29 | C[C@H]1CN([C@@H](C)CO)C(=O)c2cc(-c3cncnc3)cnc2O[C@@H]1CN(C)C(=O)Nc1ccc2c(c1)OCO2 | inactive: 0.982
30 | C=c1nnsc1=C1NC(c2cc(C)on2)=NO1 | inactive: 0.968
31 | O=c1c(O)c(-c2ccccc2)oc2ccccc12 | inactive: 1.04
32 | CC(C)(C)c1ccc(S(=O)(=O)Nc2nccnc2-c2ccc(CNCc3ccc4c(c3)OCO4)cc2)cc1 | inactive: 0.97
33 | C[C@H](CO)N1C[C@H](C)[C@@H](CN(C)C(=O)Nc2ccc(C(F)(F)F)cc2)OCCCC[C@H](C)Oc2ccc(N(C)C)cc2C1=O | inactive: 0.961
34 | C[C@H]1CN([C@@H](C)CO)C(=O)c2cc(C#CCN(C)C)cnc2O[C@@H]1CN(C)C(=O)Nc1ccccc1F | inactive: 0.996
35 | C[C@H](CO)N1C[C@H](C)[C@@H](CN(C)Cc2ccc(C(F)(F)F)cc2)Oc2c(NC(=O)Nc3ccccc3)cccc2C1=O | inactive: 0.819
36 | Cc1ccc(S(=O)(=O)Nc2ccc3c(c2)C(=O)N([C@@H](C)CO)C[C@H](C)[C@@H](CN(C)C(=O)Nc2ccc(F)cc2)OCCCC[C@@H](C)O3)cc1 | inactive: 0.995
37 | O=C1NCC[C@H]2[C@H]1N=C(N1CCCCC1)N2[C@H]1O[C@H](CO)[C@@H](O)[C@@H]1O | inactive: 1.03
38 | CN(C)CC(=O)N1CC(=O)N2[C@@H](CO)[C@H](c3ccc(C#Cc4cccnc4)cc3)[C@@H]2C1 | inactive: 1.02
